Data reported in a collection of fitness landscapes (doi:10.1016/j.celrep.2020.107928).
The full ranking holds about 81,000 sequences; the median of “one-hybrid fitness for binding parS DNA” is about -0.17, and the highest 2% start at about 0.51. Some of the results follow.

B1: Caulobacter ParB omega fusion; a variant is named by its letters at X, in order, B8GW30 (parent)
chain: MESVVVGEPGMSEGRRGLGRGLSALLGEVDAAPAQAPGEQLGGSREAPIEILQRNPDQPRRTFREEDLEDLSNSIREKGVLQPILVRPSPDTAGEYQIVAGERAWRAAQRAGLKTVPIMVRELDDLAVLEIGIIENVQRADLNVLEEALSYKVLMEKFERTQENIAQTIGKSXSHVANXMRLLXLPDEVQSYLVSGELTAXHARAIAAAADPVALAKQIIEGGLSVRETEALARKAPNLSAGKSKGGRPPRVKDTDTQALESDLSSVLGLDVSIDHRGSTGTLTITYATLEQLDDLCNRLTRGI

Variants of: B1
Assay: one-hybrid fitness for binding parS DNA (scaled: cognate 1, non-cognate 0); higher = stronger binding
Conditions: with parS DNA site
In short: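 The reporter was HIS3, with the binding site 19 bp from the promoter, in E. coli USO used for bacterial one-hybrid selection of Caulobacter ParB libraries with four specificity codons randomised. Growth was on M9 lacking histidine, with 0.1 mM IPTG and 5 mM 3-AT, for 48 hours at 37°C. Illumina sequencing covered plasmids before and after selection; three replicate libraries were pooled and variants with under 10 reads dropped. A fitness score is the log change in variant-to-wild-type read ratio, rescaled to the cognate and non-cognate references.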

Variant	one-hybrid fitness for binding parS DNA
AIYY	≤ 0.2
VWLF	≤ 0.2
YSFR	≤ 0.2
QAKM	≤ 0.2
RNAC	0.754
TLTY	≤ 0.2
MTPL	≤ 0.2
RYKK	≤ 0.2
LRVV	≤ 0.2
SAAT	≤ 0.2
CRWF	≤ 0.2
QIYV	≤ 0.2
FAGT	≤ 0.2
TAPA	≤ 0.2
REQS	0.205
TEHR	≤ 0.2
CFQS	≤ 0.2
PRWC	≤ 0.2
QKRA	≤ 0.2
HKCC	≤ 0.2
RCLT	0.966
EKPP	≤ 0.2
TCVT	≤ 0.2
WKMG	≤ 0.2

Variant	one-hybrid fitness for binding parS DNA
QMDV	≤ 0.2
QNSE	≤ 0.2
NGES	≤ 0.2
RFFN	0.262
YWRG	≤ 0.2
CILY	≤ 0.2
KGPV	≤ 0.2
HEAR	≤ 0.2
QVWC	≤ 0.2
TSTP	≤ 0.2
GRGT	≤ 0.2
PPLM	≤ 0.2
DTLC	≤ 0.2
GSQS	≤ 0.2
PPVN	≤ 0.2
KNTF	≤ 0.2
TSWR	≤ 0.2
GCLL	≤ 0.2
DSHS	≤ 0.2
PSAD	≤ 0.2
ARNN	≤ 0.2
GWLS	≤ 0.2
QTRT	≤ 0.2
LSYT	≤ 0.2

Variant	one-hybrid fitness for binding parS DNA
DKKL	≤ 0.2
EGSG	≤ 0.2
KGYR	≤ 0.2
FYLG	≤ 0.2
SRYA	≤ 0.2
TTIF	≤ 0.2
FPHP	≤ 0.2
TGPN	≤ 0.2
EQYT	≤ 0.2
VSCW	≤ 0.2
VTFY	≤ 0.2
KIWG	≤ 0.2
HLTC	≤ 0.2
DRGR	≤ 0.2
GAWS	≤ 0.2
QVIL	≤ 0.2
TISA	≤ 0.2
RTIG	0.98
RMDC	0.889
YNKA	≤ 0.2
PTSR	≤ 0.2
KAAE	≤ 0.2
NQNV	≤ 0.2
VSSH	≤ 0.2

Variant	one-hybrid fitness for binding parS DNA
RADG	0.908
VEGR	≤ 0.2
ADRW	≤ 0.2
NMRV	≤ 0.2
ASSN	≤ 0.2
NCKG	≤ 0.2
SLHT	≤ 0.2
YLER	≤ 0.2
EHAD	≤ 0.2
RHCF	≤ 0.2
YSIR	≤ 0.2
GGKY	≤ 0.2
FFSI	≤ 0.2
VMLN	≤ 0.2
YSQY	≤ 0.2
HGAH	≤ 0.2
SDPY	≤ 0.2
PLNG	≤ 0.2
CFTS	≤ 0.2
VTPD	≤ 0.2
RFFW	≤ 0.2
ICTC	≤ 0.2
GCSF	≤ 0.2
LLKL	≤ 0.2

Variant	one-hybrid fitness for binding parS DNA
RASA	0.595
TSKI	≤ 0.2
TAPD	≤ 0.2
AVHC	≤ 0.2
DKGM	≤ 0.2
YMYP	≤ 0.2
WMCC	≤ 0.2
VKPF	≤ 0.2
WSCI	0.213
LWST	≤ 0.2
KSNE	≤ 0.2
ICTV	≤ 0.2
WPCG	≤ 0.2
QYIK	≤ 0.2
PDAA	≤ 0.2
RSIC	0.718
THLS	≤ 0.2
WDIR	≤ 0.2
GWYC	≤ 0.2
QLCD	≤ 0.2
DDQF	≤ 0.2
TRND	≤ 0.2
EFMA	≤ 0.2
PRRP	≤ 0.2

Variant	one-hybrid fitness for binding parS DNA
SFST	≤ 0.2
QTTQ	≤ 0.2
LLEW	≤ 0.2
NEHF	≤ 0.2
FTKT	≤ 0.2
LNIC	≤ 0.2
HISG	≤ 0.2
TGWV	≤ 0.2
QHLN	≤ 0.2
ERYY	≤ 0.2
SVGA	≤ 0.2
RSGF	0.274
FQHV	≤ 0.2
IYLS	≤ 0.2
QLSA	≤ 0.2
MLDG	≤ 0.2
QQLS	≤ 0.2
NTCR	≤ 0.2
LPSI	≤ 0.2
SVAT	≤ 0.2
RKIC	0.811
LLEA	≤ 0.2
LIDL	≤ 0.2
DPRI	≤ 0.2

Variant	one-hybrid fitness for binding parS DNA
EFRR	≤ 0.2
RITC	0.962
DANR	≤ 0.2
KIYC	≤ 0.2
TTYS	≤ 0.2
LRMT	≤ 0.2
GSIY	≤ 0.2
TMLS	≤ 0.2
GAKH	≤ 0.2
RDSL	≤ 0.2
AQCS	≤ 0.2
ENDY	≤ 0.2
AHPM	≤ 0.2
QEKR	≤ 0.2
LSFG	≤ 0.2
ADTE	≤ 0.2
PPHR	≤ 0.2
SGQA	≤ 0.2
SPFC	≤ 0.2
HMSC	≤ 0.2
RDHC	≤ 0.2
RFFT	0.582
LPSG	≤ 0.2
LSQL	≤ 0.2

Variant	one-hybrid fitness for binding parS DNA
RLQS	1
HVHI	≤ 0.2
TYKQ	≤ 0.2
WRKN	≤ 0.2
VSTV	≤ 0.2
SCVR	≤ 0.2
VIGT	≤ 0.2
VKFT	≤ 0.2
LMKA	≤ 0.2
GEDS	≤ 0.2
PCQC	≤ 0.2
VLSD	≤ 0.2
RQQA	0.548
RHTM	0.224
FTHS	≤ 0.2
GPRK	≤ 0.2
KGRV	≤ 0.2
GTWC	≤ 0.2
QWIT	≤ 0.2
GSLC	≤ 0.2
WYTT	≤ 0.2
SMES	≤ 0.2
TMED	≤ 0.2
ADNE	≤ 0.2

Variant	one-hybrid fitness for binding parS DNA
EASM	≤ 0.2
VDAD	≤ 0.2
SNEY	≤ 0.2
CVEG	≤ 0.2
QVFW	≤ 0.2
CSVR	≤ 0.2
HVFF	≤ 0.2
KRHI	≤ 0.2
NNSR	≤ 0.2
LTDF	≤ 0.2
INHN	≤ 0.2
RCMW	0.261
RWWG	0.641
VGHM	≤ 0.2
LADS	≤ 0.2
KGIS	≤ 0.2
SYAI	≤ 0.2
AHVY	≤ 0.2
APVV	≤ 0.2
RWVL	≤ 0.2
AHII	≤ 0.2
RAGM	0.342
TKKR	≤ 0.2
RDHS	≤ 0.2

Variant	one-hybrid fitness for binding parS DNA
PKHT	≤ 0.2
QYNS	≤ 0.2
GRDT	≤ 0.2
VCSW	≤ 0.2
NRSR	≤ 0.2
VWWR	≤ 0.2
EQNF	≤ 0.2
RGYL	≤ 0.2
RHAR	≤ 0.2
RIKK	≤ 0.2
QRHK	≤ 0.2
QLCT	≤ 0.2
VDAT	≤ 0.2
EPTH	≤ 0.2
VLVC	≤ 0.2
WAIG	≤ 0.2
VITF	≤ 0.2
GQAS	≤ 0.2
PDRG	≤ 0.2
RRIE	≤ 0.2
YPLV	≤ 0.2
MQFR	≤ 0.2
GVMD	≤ 0.2
MVFN	≤ 0.2

Variant	one-hybrid fitness for binding parS DNA
HRMV	≤ 0.2
WPEL	≤ 0.2
TYHQ	≤ 0.2
LEYG	≤ 0.2
AIQR	≤ 0.2
QCCK	≤ 0.2
PHPN	≤ 0.2
DGIL	≤ 0.2
GFTR	≤ 0.2
RPEN	≤ 0.2
QAFD	≤ 0.2
SYDD	≤ 0.2
TGAA	≤ 0.2
QNKE	≤ 0.2
TLAV	≤ 0.2
DWYT	≤ 0.2
QMPK	≤ 0.2
PYYT	≤ 0.2
LFYC	≤ 0.2
RTIM	0.279
RKFY	0.363
THCL	≤ 0.2
RRFQ	≤ 0.2
HVDN	≤ 0.2

Variant	one-hybrid fitness for binding parS DNA
GDTM	≤ 0.2
HDGG	≤ 0.2
EMSP	≤ 0.2
KNKR	≤ 0.2
PSQW	≤ 0.2
KHYS	≤ 0.2
TDTG	≤ 0.2
QMAR	≤ 0.2
YYEK	≤ 0.2
NGKY	≤ 0.2
QNIT	≤ 0.2
SSVC	≤ 0.2
VRPG	≤ 0.2
LNFP	≤ 0.2
QQSP	≤ 0.2
VPCS	≤ 0.2
ACGR	≤ 0.2
KTPQ	≤ 0.2
AALE	≤ 0.2
FHCC	≤ 0.2
YNNR	≤ 0.2
SNDS	≤ 0.2
DMIY	≤ 0.2
VNKK	≤ 0.2

Variant	one-hybrid fitness for binding parS DNA
VQTG	≤ 0.2
NLTF	≤ 0.2
NIRL	≤ 0.2
RFEI	≤ 0.2
HDMT	≤ 0.2
SWGT	≤ 0.2
CRMY	≤ 0.2
NQPC	≤ 0.2
RYQY	0.422
RMAT	0.913
EVDK	≤ 0.2
TLRQ	≤ 0.2
HQDA	≤ 0.2
QNEI	≤ 0.2
QSFK	≤ 0.2
LYQG	≤ 0.2
EGSS	≤ 0.2
PMFG	≤ 0.2
